# ± gives the standard deviation of the averaged measurements. The list shows a part of the results.
# Tested on: PfAP2-EXP AP2 domain (GST-tagged)
# Experiment: gcPBM binding intensity (ln(normalized median fluorescence intensity)); higher = stronger DNA binding
# Summary of the method: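 Binding of GST-tagged P. falciparum DNA-binding domains, expressed in E. coli and used at about 25 μg on average, was carried out for 1 h in 1× PBS containing 1% milk, 0.2 mg/ml BSA, 0.5% salmon testes DNA and 0.03% Triton X-100. The target was an Agilent 4 × 180k array of primer-extended double-stranded 36-bp intergenic genomic probes plus negative controls, read with Alexa488 anti-GST antibody at 488 nm. Binding intensity is the highest Masliner-normalised natural-log median intensity across replicate spots of either probe orientation.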
row,Sequence,gcPBM binding intensity (ln)
1,TATTTTTATTTATATACACACTTACATATTTATATT [CACACA_site7666],8.72 ± 0.33
2,AGAATTTATAAAAACTGTACATATTTTCCAGTTATA [XGTACX_site2848],8.37 ± 0.28
3,CATATTGTCATTCTGGTGCACTTTTTTTTTTTTTTT,9.59 ± 0.43
4,ATATAATATAACAATACGCACACGTATACAAAAAAA [CACACA_site3151],8.63 ± 0.45
5,TTTTTAATTAATCTTATAAATATTTATAAATATATA [CACACA_negctrl_site1485],8.21 ± 0.45
6,ATAAAATGCGCAAACACACACAAAAAAAAGATATAT [CACACA_site6875],8.89 ± 0.49
7,AGGAAATGTTTATATACATGCATAATTAAATATAAT [TGCATGCA_site672],8.73 ± 0.34
8,ATGTAATCATTTTCGACTTTTTTTTTTTTTTTTTTT [CACACA_negctrl_site1132],8.65 ± 0.15
9,AATTTTCATTTTAGAAGTACACACAAAAAATAAAAT [XGTACX_site4426],8.74 ± 0.41
10,TTTTTTTTTTTTTTTTTTTTCTTCATTTAATTTATA [GTGCAC_negctrl_site17],8.06 ± 0.4
11,ATTATATTTCAATTATGTACATATAAAATGAATAAA [XGTACX_site4204],8.43 ± 0.38
12,TTTTTTTATTATTATTGTACAAGGCCTTAGGTGATT [XGTACX_site5050],8.55 ± 0.41
13,TTTTCATGTTTTTTTCTTTATTTTTTTTTTTTTTTT [GTGCAC_negctrl_site511],8.37 ± 0.64
14,TACTTAATTATAAGGACATGCACAAAAGGAATTATT [TGCATGCA_site468],9.05 ± 0.34
15,TTTACACTTTTTTTTGTACACACTAATAAGATTAAC [CACACA_site9304],8.8 ± 0.31
16,TTTTAATTAAATACAAAAAAAAAAAAAAAAAAAAAA [CACACA_negctrl_site1631],7.89 ± 0.32
17,ACATTACAATTATTATAATCAATATATAACCTCTAA [TGCATGCA_negctrl_site105],8.34 ± 0.38
18,AAAAAAATTTTTAAAAGTACATTAATATTAATATGT [XGTACX_site5177],8.77 ± 0.35
19,ATAAAATTATATACTCGTACACAAAAAAAAAAAATA [XGTACX_site6035],8.48 ± 0.52

row,Sequence,gcPBM binding intensity (ln)
1,AAATATATTTTTTTTTGTACTCAAAAAGAAAAAAAA [XGTACX_site8540],8.28 ± 0.34
2,AAAAATTGAATGATGTGTACTTAAAAGAATATAGAA [XGTACX_site6588],8.74 ± 0.23
3,TATATAATAACATATGCATGCAAGTAATATAACCAA [TGCATGCA_site324],9.96 ± 0.13
4,TATAATATATATGTAACACACAAAAGTTATATACTT [CACACA_site2868],8.28 ± 0.37
5,CATTAATATATATATAGTACATATACACCTTCATTA [XGTACX_site8473],8.38 ± 0.13
6,AAAAAAAATCAGACAGGTACACATTCCATGTTCAAA [XGTACX_site5380],8.37 ± 0.51
7,ATATATTATATTTAAGTGCATTAATTAAAATGCTTA [GTGCAC_site9403],8.49 ± 0.23
8,TAAGAATACGAAAGGTGTACACTGTGGAGACTTCAA [XGTACX_site2619],9.06 ± 0.43
9,ATAATTAAATAAAAAAGTACACATACATCATAATGC [XGTACX_site7656],8.84 ± 0.29
10,CAATTAAAAAATAATACATGCATATAAATAGATATT [TGCATGCA_site427],8.71 ± 0.38
11,TATGAAGTGCACAATACACACTAATTCTATATAAAT [CACACA_site7269],8.95 ± 0.3
12,AAAATAAATATAAAATGTACTTATATATATATATAT [XGTACX_site7803],9.97 ± 0.47
13,TTGCACTCGTAAAAAGCACACATATAAAAACATTTA [CACACA_site7997],8.57 ± 0.4
14,TTAAAAATGTTATAATGTACATATAATATTTTATGA [XGTACX_site5954],8.29 ± 0.38
15,TATATATATATATATATATATATTTTTATTATATAT [XGTACX_negctrl_site89],10.2 ± 0.52
16,ATTATAAATATAAATATAAATATATATTGTTCCGCA [TGCATGCA_negctrl_site470],8.18 ± 0.39
17,AAAAAAAACAGACACACACACAAATATTTATATATC [CACACA_site6342],8.79 ± 0.48
18,TTTATCCTTCTTTTGAGTACTCAAAGAGACCTATAA [XGTACX_site8050],8.89 ± 0.45
19,ATTATAAATAAAATATGTACATATGTATAAATACAT [XGTACX_site4002],8.43 ± 0.38

row,Sequence,gcPBM binding intensity (ln)
1,AAAACACATACTATATGTACATATAATAATTTATAT [XGTACX_site4525],8.51 ± 0.29
2,TTCTGTATATAGTGTGCACACAATTAAAAAAAAAAA [CACACA_site8400],8.79 ± 0.4
3,AAGAAAAAAAAAAAAAAAAAAAAAAAAAAAAAAAAA [TGCATGCA_negctrl_site263],7.86 ± 0.27
4,TAGATACAGAAACACACACACACATACATATATACA [CACACA_site3437],8.79 ± 0.57
5,AATAAATTAAAACAGGTGCACTATATTACACACGCT,8.98 ± 0.085
6,AGAATTATTGTTAATGCATGTGGAAGTTAAAATATT [TGCATGCA_site188],9.04 ± 0.47
7,TTATGGAGAGTTATATGTACGAAAAATATGTATAAG [XGTACX_site515],8.86 ± 0.45
8,TATATAGTAATTTATTCACACAATTGGCACACCTCA [CACACA_site4679],8.71 ± 0.35
9,TATTTAAATTGTAAGTGTACATATATAAATGTAAAA [XGTACX_site1609],8.52 ± 0.23
10,TATAATATATATTTGTGTCCACAACATTTTTAATAT [XGTACX_site2089],8.56 ± 0.28
11,TAGATACATACACGCACACACATATATAAATAAATA [CACACA_site6157],8.69 ± 0.49
12,AAAAAAAACAGACACACACACATACACATACATACA [CACACA_site2857],8.72 ± 0.33
13,TAATTATGTACTATTATACACACGTTTAATTGTAAA [CACACA_site206],8.52 ± 0.28
14,TTACGTATGTATTATGTTGTATATGAAATTAAAAAA [GTGCAC_negctrl_site292],8.21 ± 0.39
15,AATAATATATGGTGTACACAAAAGTATAAATAATTT [CACACA_site5338],9.05 ± 0.29
16,TATAAAAAAATAATAAATAAATAAAAAGATTTCTTT [TGCATGCA_negctrl_site122],7.83 ± 0.47
17,TTGTGAATAACTAAGAAGAAAAAGATAAATATGTAT [TGCATGCA_negctrl_site388],8.82 ± 0.45
18,TATTCATGCATATACACACACATATATTTATATTTT [CACACA_site7786],8.77 ± 0.35

# Source: the supplement of paper PMC11417369
